# Laboratory results published in ChEMBL document CHEMBL1201862, “PubChem BioAssay data set” (2004).
#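 Grown in 96-well plates, cells were treated for 48 hours with each compound at five concentrations. Insufficient inhibition: endpoint recorded as highest concentration tested. Here, GI50 denotes the concentration required for 50% inhibition of growth.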 Active and inactive are the calls of the source. Rule as the data show it: active = GI50 up to about 1.1 µM and inactive = higher.
# Tested on: NCI-H322M
# Assay: NCI-60 cell line screen, 48 h
row,Compound,GI50
1,CC1=NN(C(=O)c2ccccc2O)C(=O)/C1=C/c1ccc(O)cc1,inactive: 2.26 µM
2,N#Cc1c(N)nc(S)c(C#N)c1-c1ccccc1,inactive: > 100 µM
3,CC12CC(=O)C3C(CCC4=CC(=O)CCC43C)C1CC=C2CC(=O)O (centres undefined),inactive: > 100 µM
4,Nc1nc(-c2cccs2)cs1,inactive: > 100 µM
5,COc1ccc(-c2c3c(nc4nc(SCC(=O)c5ccc(Br)cc5)nc(N)c24)CCCC3)cc1OC,inactive: > 100 µM
6,CC(C)OC(=O)c1ccc(NCc2cc(O)ccc2O)cc1Cl,inactive: 23.7 µM
7,CCN(CC)C1Oc2cc3c(cc2C(c2cc(OC)c(OC)c(OC)c2)C1C)OCO3 (centres undefined),active: 0.966 µM
8,CC(=O)Nc1nc(NC(C)=O)c2nc(CO)[nH]c2n1,inactive: > 100 µM
9,C1CSCCCSCCCSCCCSCCCSCCCSCCCSCCCSC1,inactive: > 100 µM
10,C=C1[C@H](OC(=O)C(C)C)[C@@H](OC(C)=O)[C@@H](OC(C)=O)C(C)(C)[C@@H]2O[C@H]2[C@@H](C)C(=O)[C@@]2(OC(C)=O)C[C@@](C)(OC(C)=O)[C@H](OC(C)=O)[C@@H]2[C@H]1OC(C)=O,inactive: > 100 µM
11,O=C1/C(=C/c2cccc([N+](=O)[O-])c2)N=C(c2ccccc2)N1c1nc2ccc(Sc3ccccc3)cc2[nH]1,inactive: 54.3 µM
12,CC12Oc3ccc4ccccc4c3CC1Cc1c(ccc3ccccc13)O2 (centres undefined),inactive: 97.9 µM
13,O=[N+]([O-])/C(Cl)=C(/C(Cl)=C(Cl)Cl)N1CCOCC1,inactive: 18.3 µM
14,CC1(C)OC(C(=O)Nc2cc3c4ccccc4ccc3c3ccccc23)C(C(=O)N2CCCCC2)O1 (centres undefined),inactive: > 83 µM
15,O=c1ccn2n1CCCCC2,inactive: > 100 µM
16,COc1cc2cc(C(=O)N3CC(CCl)c4ccccc43)[nH]c2c(OC)c1OC (centres undefined),inactive: > 100 µM
17,CCOC(=N)/C(=C1\OC(=N)C(c2ccc(Cl)cc2)=C1O)c1ccc(Cl)cc1,inactive: 19.3 µM
18,Cc1cc(N2CCOCC2)nc2ccc(Cc3ccc4nc(N5CCOCC5)cc(C)c4c3)cc12,inactive: > 100 µM
19,Cc1cccc(C)c1NC(=O)C(Cc1c[nH]c2ccccc12)NC(=O)OCc1ccccc1 (centres undefined),inactive: 16.7 µM
20,Cc1nc2c(n1-c1ccccc1)C(=O)c1ccccc1C2=O,inactive: 70.6 µM
21,CC(C)(C)c1ccc(OCCOCCOc2ccc(C(C)(C)C)cc2S(N)(=O)=O)c(S(N)(=O)=O)c1,inactive: > 100 µM
22,CNCCN[C@@H]1c2cc3c(cc2[C@@H](c2cc(OC)c(O)c(OC)c2)[C@H]2C(=O)OC[C@@H]21)OCO3,inactive: 1.75 µM
23,Cc1ccc2c(ccc(/C=C/c3ccc(O)c4ncccc34)[n+]2C)c1,inactive: 10.2 µM
24,COc1ccc(C(=O)Nc2ccc(O)c(=O)cc2)cc1,inactive: > 100 µM

row,Compound,GI50
1,CCOC(=O)c1c2c(n(C)c1-c1ccccc1)C(=O)C(C)=CC2=O,inactive: 16 µM
2,COc1cccc(NC(=O)/C(CS(=O)(=O)CCC(C(C)=O)C(C)=O)=N/NC(C)(C)C)c1,inactive: > 100 µM
3,COc1cc(C2S/C(=C/c3ccccc3)C(=O)N2c2ccc(Cl)cc2)cc(OC)c1OC (centres undefined),inactive: 21 µM
4,CC(=O)c1c(-c2ccc(Cl)cc2)c(C#N)c(=S)n(C2OC(CO)C(O)C(O)C2O)c1C (centres undefined),inactive: > 100 µM
5,C=CCCC(=O)N1CCC(C(=O)OCC)C1=O (centres undefined),inactive: > 100 µM
6,COc1cc(C(C)O)c[n+](CCc2c[nH]c3ccccc23)c1 (centres undefined),inactive: > 100 µM
7,CC(=O)SC(SC(C)=O)SC(C)=O,inactive: > 100 µM
8,O=C1C2=C(CCCC2)Nc2cccc3ncn1c23,inactive: > 100 µM
9,O=C(O)c1nn[nH]c1S,inactive: > 100 µM
10,CC1CCC/C1=C(/I)C(=O)c1ccccc1 (centres undefined),inactive: > 100 µM
11,N#CC(C(=O)CCC(=O)Nc1ccc(Cl)cc1)c1ccc(Cl)cc1 (centres undefined),inactive: > 100 µM
12,COc1ccccc1/C=C1\N=C(C)OC1=O,inactive: > 100 µM
13,Cc1cc(C)c(S(=O)(=O)N(CCCCCN)OCCCN)c(C)c1,inactive: 18.2 µM
14,CCOC(=O)CCC(NC(=O)c1ccc(Nc2nc3ccccc3nc2-c2cccs2)cc1)C(=O)OCC (centres undefined),inactive: 32.4 µM
15,O=Cc1c2ccccc2n2ccc3c4ccccc4[nH]c3c12,inactive: > 10 µM
16,O=c1nc2occc2cn1C1CC(O)C(CO)O1 (centres undefined),inactive: > 100 µM
17,COC1OC(C(C)O)C2OC(C)(C)OC12 (centres undefined),inactive: > 100 µM
18,CC1(Br)CC2OC3(Br)C=CC(C)(O)C2(CC1=O)C3(C)C (centres undefined),inactive: > 100 µM
19,CCc1cccc(C(C)C)c1NC(=O)CC1Sc2ccccc2NC1=O (centres undefined),inactive: > 100 µM
20,CC12CCCC(C#N)(C1)OC2=O (centres undefined),inactive: > 100 µM
21,CN(C)CCCN1c2ccc([N+](=O)[O-])cc2CCc2cc([N+](=O)[O-])ccc21,inactive: 14.8 µM
22,Cc1ccccc1N1C(=O)C2C=CC(n3[nH]c(=O)n(Cc4ccccc4)c3=O)CC2C1=O (centres undefined),inactive: > 100 µM
23,Cn1c(CO)ccc1-c1ccc(-c2ccc(CO)[se]2)[se]1,inactive: 8.65 µM
24,CCn1c(=N)sc2nc3ccccc3n2c1=O,inactive: > 100 µM

row,Compound,GI50
1,CCOc1ccccc1C=C1c2ccccc2C(=O)c2ccccc21,inactive: 5.14 µM
2,CCC(C)N1CN(c2ccccc2)C2(CCN(CCCC3(c4ccc(F)cc4)OCCO3)CC2)C1=O (centres undefined),inactive: 18.4 µM
3,N/C(=N\O)NCCN1CCCCCCC1,inactive: > 100 µM
4,c1ccc2c(c1)[n-]n1c3ccc4nonc4c3n[n+]21,inactive: > 100 µM
5,C[C@@H]1S[C@H](c2c(Cl)cccc2Cl)N2Cc3ccccc3N=C12,inactive: > 100 µM
6,Cc1ccc(N/N=C/C2=CC(C)(C)C(C#N)(C#N)C(O)=C2C#N)cc1,inactive: 60.8 µM
7,[O-]c1on[n+]2c1c(Nc1ccc(Cl)cc1)nc1ccccc12,inactive: > 100 µM
8,COc1cc(/C=C/C(=O)OC[C@]23O[C@H]2[C@@H](OC2OC(C)C(O)C(O)C2O)C2C=CO[C@@H](OC4OC(CO)C(O)C(O)C4O)C23)ccc1O (some centres undefined),inactive: > 100 µM
9,CNC(C)Cc1ccc(O)cc1 (centres undefined),inactive: > 100 µM
10,O=C1c2cc3c(cc2CC1Cc1ccc2c(c1)CCC2)CCC3 (centres undefined),inactive: 47.6 µM
11,CC1(C)[C@@H]2CC[C@]1(C)[C@H](OC(=O)/C=C/c1ccccc1)C2,inactive: 21.4 µM
12,NS(=O)(=O)c1ccc(NC(=O)CC(=O)Nc2ccc(S(N)(=O)=O)cc2)cc1,inactive: > 100 µM
13,CCN(C(=S)N[C@H](C(=O)N[C@@H](C)C(=O)OC)C(C)C)c1ccccc1,inactive: > 100 µM
14,COC(=O)Cc1cc(=O)n2c([nH]c3ccccc32)c1C#N,inactive: > 100 µM
15,COC(=O)c1ccccc1CC(Cc1ccc2c(c1)CCC2)C(=O)OC (centres undefined),inactive: > 100 µM
16,CC(=O)Oc1c(C)n(CCCl)ccc1=O,inactive: 86.7 µM
17,CCCCCCCCC[n+]1cccc(C2C(C(=O)OCC)=C(C)NC(C)=C2C(=O)OCC)c1,inactive: 16 µM
18,Cc1cn([C@H]2C[C@@H]3[C@@H](COC(CCl)N3O)O2)c(=O)[nH]c1=O (some centres undefined),inactive: > 100 µM
19,Cc1cc2c(C)n[nH]c2c(C(=O)O)c1C,inactive: > 100 µM
20,Clc1ccc(CCn2cncn2)c(Cl)c1,inactive: > 100 µM
21,O=C(CSSCC(=O)Nc1ccc(Br)cc1)Nc1ccc(Br)cc1,inactive: 24.1 µM
22,COc1ccc(C2ON(c3ccccc3)CC=C2C)cc1 (centres undefined),inactive: > 100 µM
23,CC(=O)NC1=C(N)C(=O)c2ccccc2C1=O,inactive: > 100 µM
24,O=C1c2ccccc2C(=O)c2c1ccc1c2N=C(c2ccc(Br)cc2)CC(c2cccc3ccccc23)N1 (centres undefined),inactive: > 100 µM

row,Compound,GI50
1,CSC(=S)OC1C(CO[Si](C)(C)C(C)(C)C)OC2OC(C)(C)OC21 (centres undefined),inactive: 20.9 µM
2,CCOC(=O)CN1CCS/C1=N/C#N,inactive: > 100 µM
3,CN(CCC#N)c1ccc(/C=C2\SC(=S)NC2=O)cc1,inactive: 44.2 µM
4,O=P1(Oc2ccc(Cl)cc2Cl)Oc2cc3ccccc3cc2O1,inactive: 55 µM
5,COc1ccc2nc(NC(=O)C(=O)CC(=O)c3ccc(Cl)cc3)sc2c1,inactive: 49.1 µM
6,COc1ccc2c(c1)c1cc(OC)ccc1n2CCCCOc1ccc(-c2c3ccccc3c(-c3ccc(OCCCCn4c5ccc(OC)cc5c5cc(OC)ccc54)cc3)c3ccccc23)cc1,inactive: > 100 µM
7,Cc1oc2c(c1C)S(=O)(=O)C(C#N)=C(c1ccccc1)N2,inactive: > 100 µM
8,N#CCCCCC12C3C(=O)N(c4ccccc4)C(=O)C3ON1O[C@@H]1C(=O)N(c3ccccc3)C(=O)[C@@H]12 (some centres undefined),inactive: > 100 µM
9,Fc1ccc(C2SCc3nc4ccccc4n32)cc1Cl (centres undefined),inactive: 36.6 µM
10,Cc1ccc(NC(=O)c2cc3ccccc3c(/N=N\c3ccccc3O)c2O)c(C)c1,inactive: 3.48 µM
11,O=C1Nc2ccccc2Cn2c1cc1oc(-c3ccccc3)cc12,inactive: 37.7 µM
12,O=C(CSCC(=O)N/N=C/c1ccncc1)N/N=C/c1ccncc1,inactive: > 100 µM
13,COc1ccc(N(C)C(=O)N(C)c2ccc([N+](=O)[O-])cc2)cc1,inactive: > 100 µM
14,CC(C)C1CC[C@H](C)C[C@@H]1OC(=O)C(C(=O)O[C@H]1C[C@@H](C)CCC1C(C)C)C(O)[C@@H]1OC(C)(C)O[C@H]1C1COC(C)(C)O1 (some centres undefined),inactive: 21.5 µM
15,C[C@@H](N[C@H]1CCC[C@@H]1O)c1ccccc1.C[C@@H](N[C@H]1CCC[C@H]1O)c1ccccc1,inactive: > 100 µM
16,COC(=O)C1CC(=O)O[C@H]1c1ccc(OC)c(OC)c1 (some centres undefined),inactive: > 100 µM
17,Cc1ncc([N+](=O)[O-])n1CCNC(=O)CCCn1ccnc1[N+](=O)[O-],inactive: > 100 µM
18,NC(CCCCP(=O)(O)O)C(=O)O (centres undefined),inactive: > 100 µM
19,CC1=NN(c2ccccc2)C(=O)/C1=C\c1c(C)[nH]n(-c2ccccc2)c1=O,inactive: > 100 µM
20,O=c1c(C(c2ccc3ccccc3c2)c2c(O)oc3ccccc3c2=O)c(O)oc2ccccc12,inactive: 36.9 µM
21,O=C1Nc2ccc([N+](=O)[O-])cc2/C1=N/NC(=S)Nc1ccccc1,inactive: 5.68 µM
22,Cc1cc(-c2nc3ccc(F)cc3s2)ccc1N,inactive: 76.6 µM
